Data published in patent US5235038A, “Deletion and substitution analogues of melittin peptide” (Torry Pines Institute for Molecular Studies, priority 1991, dated 1993).
In brackets after ≈: the same amount, converted by molar mass. Part of at least one peptide drawing is inferred or uncertain, most often the ends.

Key:
[1] = tested on: Staphylococcus aureus ATCC 29213; test: Antimicrobial assay, minimum inhibitory concentration (MIC); format: cell-based; conditions: S. aureus ATCC 29213, LB medium, 37° C., no change in OD 620nm between 0 and 18 hours
[2] = tested on: Pseudomonas aeruginosa ATCC 27853; test: as above; format: cell-based; conditions: P. aeruginosa ATCC 27853, LB medium, 37° C., no change in OD 620nm between 0 and 18 hours

| SMILES | MIC S. aureus [1] [µg/mL] | MIC P. aeruginosa [2] [µg/mL] |
| --- | --- | --- |
| CC[C@H](C)[C@H](NC(=O)CN)C(=O)NCC(=O)N[C@@H](C)C(=O)N[C@H](C(=O)N[C@@H](CC(C)C)C(=O)N[C@@H](CCCCN)C(=O)N[C@H](C(=O)N[C@@H](CC(C)C)C(=O)N[C@H](C(=O)N[C@H](C(=O)NCC(=O)N[C@@H](CC(C)C)C(=O)N1CCC[C@H]1C(=O)N[C@@H](C)C(=O)N[C@@H](CC(C)C)C(=O)N[C@H](C(=O)N[C@@H](CO)C(=O)N[C@@H](Cc1c[nH]c2ccccc12)C(=O)N[C@H](C(=O)N[C@@H](CCCCN)C(=O)N[C@@H](CCCNC(=N)N)C(=O)N[C@@H](CCCCN)C(=O)N[C@@H](CCCNC(=N)N)C(=O)N[C@@H](CCC(N)=O)C(=O)N[C@@H](CCC(N)=O)C(N)=O)[C@@H](C)CC)[C@@H](C)CC)[C@@H](C)O)[C@@H](C)O)C(C)C)C(C)C [SEQ ID NO: 1, Melittin] | 25 (≈ 8.78 µM) | 50 (≈ 17.6 µM) |
| CC[C@H](C)[C@H](N)C(=O)NCC(=O)N[C@@H](C)C(=O)N[C@H](C(=O)N[C@@H](CC(C)C)C(=O)N[C@@H](CCCCN)C(=O)N[C@H](C(=O)N[C@@H](CC(C)C)C(=O)N[C@H](C(=O)N[C@H](C(=O)NCC(=O)N[C@@H](CC(C)C)C(=O)N1CCC[C@H]1C(=O)N[C@@H](C)C(=O)N[C@@H](CC(C)C)C(=O)N[C@H](C(=O)N[C@@H](CO)C(=O)N[C@@H](Cc1c[nH]c2ccccc12)C(=O)N[C@H](C(=O)N[C@@H](CCCCN)C(=O)N[C@@H](CCCNC(=N)N)C(=O)N[C@@H](CCCCN)C(=O)N[C@@H](CCCNC(=N)N)C(=O)N[C@@H](CCC(N)=O)C(=O)N[C@@H](CCC(N)=O)C(N)=O)[C@@H](C)CC)[C@@H](C)CC)[C@@H](C)O)[C@@H](C)O)C(C)C)C(C)C [SEQ ID NO: 2] | 25 (≈ 8.96 µM) | 50 (≈ 17.9 µM) |
| CC[C@H](C)[C@H](NC(=O)[C@H](CC(C)C)NC(=O)[C@H](C)NC(=O)[C@@H]1CCCN1C(=O)[C@H](CC(C)C)NC(=O)CNC(=O)[C@@H](NC(=O)[C@@H](NC(=O)[C@H](CC(C)C)NC(=O)[C@@H](NC(=O)[C@H](CCCCN)NC(=O)[C@H](CC(C)C)NC(=O)[C@@H](NC(=O)[C@H](C)NC(=O)CNC(=O)CN)C(C)C)C(C)C)[C@@H](C)O)[C@@H](C)O)C(=O)N[C@@H](CO)C(=O)N[C@@H](Cc1c[nH]c2ccccc12)C(=O)N[C@H](C(=O)N[C@@H](CCCCN)C(=O)N[C@@H](CCCNC(=N)N)C(=O)N[C@@H](CCCCN)C(=O)N[C@@H](CCCNC(=N)N)C(=O)N[C@@H](CCC(N)=O)C(=O)N[C@@H](CCC(N)=O)C(N)=O)[C@@H](C)CC [SEQ ID NO: 3] | 50 (≈ 18.3 µM) | 100 (≈ 36.6 µM) |
| CC[C@H](C)[C@H](NC(=O)CN)C(=O)N[C@@H](C)C(=O)N[C@H](C(=O)N[C@@H](CC(C)C)C(=O)N[C@@H](CCCCN)C(=O)N[C@H](C(=O)N[C@@H](CC(C)C)C(=O)N[C@H](C(=O)N[C@H](C(=O)NCC(=O)N[C@@H](CC(C)C)C(=O)N1CCC[C@H]1C(=O)N[C@@H](C)C(=O)N[C@@H](CC(C)C)C(=O)N[C@H](C(=O)N[C@@H](CO)C(=O)N[C@@H](Cc1c[nH]c2ccccc12)C(=O)N[C@H](C(=O)N[C@@H](CCCCN)C(=O)N[C@@H](CCCNC(=N)N)C(=O)N[C@@H](CCCCN)C(=O)N[C@@H](CCCNC(=N)N)C(=O)N[C@@H](CCC(N)=O)C(=O)N[C@@H](CCC(N)=O)C(N)=O)[C@@H](C)CC)[C@@H](C)CC)[C@@H](C)O)[C@@H](C)O)C(C)C)C(C)C [SEQ ID NO: 4] | 50 (≈ 17.9 µM) | 100 (≈ 35.8 µM) |
| CC[C@H](C)[C@H](NC(=O)CN)C(=O)NCC(=O)N[C@H](C(=O)N[C@@H](CC(C)C)C(=O)N[C@@H](CCCCN)C(=O)N[C@H](C(=O)N[C@@H](CC(C)C)C(=O)N[C@H](C(=O)N[C@H](C(=O)NCC(=O)N[C@@H](CC(C)C)C(=O)N1CCC[C@H]1C(=O)N[C@@H](C)C(=O)N[C@@H](CC(C)C)C(=O)N[C@H](C(=O)N[C@@H](CO)C(=O)N[C@@H](Cc1c[nH]c2ccccc12)C(=O)N[C@H](C(=O)N[C@@H](CCCCN)C(=O)N[C@@H](CCCNC(=N)N)C(=O)N[C@@H](CCCCN)C(=O)N[C@@H](CCCNC(=N)N)C(=O)N[C@@H](CCC(N)=O)C(=O)N[C@@H](CCC(N)=O)C(N)=O)[C@@H](C)CC)[C@@H](C)CC)[C@@H](C)O)[C@@H](C)O)C(C)C)C(C)C [SEQ ID NO: 5] | 100 (≈ 36 µM) | 100 (≈ 36 µM) |
| CC[C@H](C)[C@H](NC(=O)CN)C(=O)NCC(=O)N[C@@H](C)C(=O)N[C@@H](CC(C)C)C(=O)N[C@@H](CCCCN)C(=O)N[C@H](C(=O)N[C@@H](CC(C)C)C(=O)N[C@H](C(=O)N[C@H](C(=O)NCC(=O)N[C@@H](CC(C)C)C(=O)N1CCC[C@H]1C(=O)N[C@@H](C)C(=O)N[C@@H](CC(C)C)C(=O)N[C@H](C(=O)N[C@@H](CO)C(=O)N[C@@H](Cc1c[nH]c2ccccc12)C(=O)N[C@H](C(=O)N[C@@H](CCCCN)C(=O)N[C@@H](CCCNC(=N)N)C(=O)N[C@@H](CCCCN)C(=O)N[C@@H](CCCNC(=N)N)C(=O)N[C@@H](CCC(N)=O)C(=O)N[C@@H](CCC(N)=O)C(N)=O)[C@@H](C)CC)[C@@H](C)CC)[C@@H](C)O)[C@@H](C)O)C(C)C [SEQ ID NO: 6] | 50 (≈ 18.2 µM) | 100 (≈ 36.4 µM) |
| CC[C@H](C)[C@H](NC(=O)CN)C(=O)NCC(=O)N[C@@H](C)C(=O)N[C@H](C(=O)N[C@@H](CCCCN)C(=O)N[C@H](C(=O)N[C@@H](CC(C)C)C(=O)N[C@H](C(=O)N[C@H](C(=O)NCC(=O)N[C@@H](CC(C)C)C(=O)N1CCC[C@H]1C(=O)N[C@@H](C)C(=O)N[C@@H](CC(C)C)C(=O)N[C@H](C(=O)N[C@@H](CO)C(=O)N[C@@H](Cc1c[nH]c2ccccc12)C(=O)N[C@H](C(=O)N[C@@H](CCCCN)C(=O)N[C@@H](CCCNC(=N)N)C(=O)N[C@@H](CCCCN)C(=O)N[C@@H](CCCNC(=N)N)C(=O)N[C@@H](CCC(N)=O)C(=O)N[C@@H](CCC(N)=O)C(N)=O)[C@@H](C)CC)[C@@H](C)CC)[C@@H](C)O)[C@@H](C)O)C(C)C)C(C)C [SEQ ID NO: 7] | > 100 | > 100 |
| CC[C@H](C)[C@H](NC(=O)CN)C(=O)NCC(=O)N[C@@H](C)C(=O)N[C@H](C(=O)N[C@@H](CC(C)C)C(=O)N[C@H](C(=O)N[C@@H](CC(C)C)C(=O)N[C@H](C(=O)N[C@H](C(=O)NCC(=O)N[C@@H](CC(C)C)C(=O)N1CCC[C@H]1C(=O)N[C@@H](C)C(=O)N[C@@H](CC(C)C)C(=O)N[C@H](C(=O)N[C@@H](CO)C(=O)N[C@@H](Cc1c[nH]c2ccccc12)C(=O)N[C@H](C(=O)N[C@@H](CCCCN)C(=O)N[C@@H](CCCNC(=N)N)C(=O)N[C@@H](CCCCN)C(=O)N[C@@H](CCCNC(=N)N)C(=O)N[C@@H](CCC(N)=O)C(=O)N[C@@H](CCC(N)=O)C(N)=O)[C@@H](C)CC)[C@@H](C)CC)[C@@H](C)O)[C@@H](C)O)C(C)C)C(C)C [SEQ ID NO: 8] | > 100 | > 100 |
| CC[C@H](C)[C@H](NC(=O)CN)C(=O)NCC(=O)N[C@@H](C)C(=O)N[C@H](C(=O)N[C@@H](CC(C)C)C(=O)N[C@@H](CCCCN)C(=O)N[C@@H](CC(C)C)C(=O)N[C@H](C(=O)N[C@H](C(=O)NCC(=O)N[C@@H](CC(C)C)C(=O)N1CCC[C@H]1C(=O)N[C@@H](C)C(=O)N[C@@H](CC(C)C)C(=O)N[C@H](C(=O)N[C@@H](CO)C(=O)N[C@@H](Cc1c[nH]c2ccccc12)C(=O)N[C@H](C(=O)N[C@@H](CCCCN)C(=O)N[C@@H](CCCNC(=N)N)C(=O)N[C@@H](CCCCN)C(=O)N[C@@H](CCCNC(=N)N)C(=O)N[C@@H](CCC(N)=O)C(=O)N[C@@H](CCC(N)=O)C(N)=O)[C@@H](C)CC)[C@@H](C)CC)[C@@H](C)O)[C@@H](C)O)C(C)C [SEQ ID NO: 9] | 50 (≈ 18.2 µM) | 100 (≈ 36.4 µM) |
| CC[C@H](C)[C@H](NC(=O)CN)C(=O)NCC(=O)N[C@@H](C)C(=O)N[C@H](C(=O)N[C@@H](CC(C)C)C(=O)N[C@@H](CCCCN)C(=O)N[C@H](C(=O)N[C@H](C(=O)N[C@H](C(=O)NCC(=O)N[C@@H](CC(C)C)C(=O)N1CCC[C@H]1C(=O)N[C@@H](C)C(=O)N[C@@H](CC(C)C)C(=O)N[C@H](C(=O)N[C@@H](CO)C(=O)N[C@@H](Cc1c[nH]c2ccccc12)C(=O)N[C@H](C(=O)N[C@@H](CCCCN)C(=O)N[C@@H](CCCNC(=N)N)C(=O)N[C@@H](CCCCN)C(=O)N[C@@H](CCCNC(=N)N)C(=O)N[C@@H](CCC(N)=O)C(=O)N[C@@H](CCC(N)=O)C(N)=O)[C@@H](C)CC)[C@@H](C)CC)[C@@H](C)O)[C@@H](C)O)C(C)C)C(C)C [SEQ ID NO: 10] | > 100 | > 100 |
| CC[C@H](C)[C@H](NC(=O)CN)C(=O)NCC(=O)N[C@@H](C)C(=O)N[C@H](C(=O)N[C@@H](CC(C)C)C(=O)N[C@@H](CCCCN)C(=O)N[C@H](C(=O)N[C@@H](CC(C)C)C(=O)N[C@H](C(=O)NCC(=O)N[C@@H](CC(C)C)C(=O)N1CCC[C@H]1C(=O)N[C@@H](C)C(=O)N[C@@H](CC(C)C)C(=O)N[C@H](C(=O)N[C@@H](CO)C(=O)N[C@@H](Cc1c[nH]c2ccccc12)C(=O)N[C@H](C(=O)N[C@@H](CCCCN)C(=O)N[C@@H](CCCNC(=N)N)C(=O)N[C@@H](CCCCN)C(=O)N[C@@H](CCCNC(=N)N)C(=O)N[C@@H](CCC(N)=O)C(=O)N[C@@H](CCC(N)=O)C(N)=O)[C@@H](C)CC)[C@@H](C)CC)[C@@H](C)O)C(C)C)C(C)C [SEQ ID NO: 11] | 25 (≈ 9.11 µM) | 50 (≈ 18.2 µM) |
| CC[C@H](C)[C@H](NC(=O)CN)C(=O)NCC(=O)N[C@@H](C)C(=O)N[C@H](C(=O)N[C@@H](CC(C)C)C(=O)N[C@@H](CCCCN)C(=O)N[C@H](C(=O)N[C@@H](CC(C)C)C(=O)N[C@H](C(=O)N[C@H](C(=O)N[C@@H](CC(C)C)C(=O)N1CCC[C@H]1C(=O)N[C@@H](C)C(=O)N[C@@H](CC(C)C)C(=O)N[C@H](C(=O)N[C@@H](CO)C(=O)N[C@@H](Cc1c[nH]c2ccccc12)C(=O)N[C@H](C(=O)N[C@@H](CCCCN)C(=O)N[C@@H](CCCNC(=N)N)C(=O)N[C@@H](CCCCN)C(=O)N[C@@H](CCCNC(=N)N)C(=O)N[C@@H](CCC(N)=O)C(=O)N[C@@H](CCC(N)=O)C(N)=O)[C@@H](C)CC)[C@@H](C)CC)[C@@H](C)O)[C@@H](C)O)C(C)C)C(C)C [SEQ ID NO: 12] | 12.5 (≈ 4.48 µM) | 50 (≈ 17.9 µM) |
